# Test results: PubChem BioAssay (NCATS)
# Records with an inconclusive call do not appear. The call rests on the fitted dose curve; in most records, active means well fitted curve in the direction sought with a large enough effect; inconclusive means small, poorly fitted or top-dose-only effect, or another doubt; inactive means no such curve, though single readings can be large; an effect the other way counts as inactive or inconclusive. A structure can be active in one record and inactive in another. The source holds more than one record for some entries. This is not the full list of results. The source may hold further records. The values listed for one entry repeat one measurement in other runs, samples, wells, individuals or studies. What stands in brackets tells the records apart. Letters count within one entry.
# Key:
# [1] = qHTS assay to identify small molecule inhibitors of chordoma cells - UCH-1 (AID 1259355); conditions: UCH-1 chordoma viability, CellTiter-Glo, 48 h, combination, with auranofin plus four topoisomerase inhibitors; series mostly up to 46.1 µM; further: nearly all actives have a fitted effect of over 55% in size
# In short: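 Seed 800 cells per well; incubate overnight at 37 C, 5% CO2. Add test compounds (15 concentrations), then the auranofin–topoisomerase-agent combination. Incubate 48hr, add CellTiter-Glo, wait 30min, read luminescence.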
# [2] = qHTS of pediatric cancer cell lines to identify multiple opportunities for drug repurposing: Primary screen for NB-EBc1 cells (AID 1347095); conditions: NB-EBc1 neuroblastoma viability, CellTiter-Glo luminescence, 48 h; series mostly up to 46 µM
# [3] = qHTS of pediatric cancer cell lines to identify multiple opportunities for drug repurposing: Primary screen for NB1643 cells (AID 1347099); conditions: NB1643 neuroblastoma viability, CellTiter-Glo luminescence, 48 h; series mostly up to 46 µM; further: nearly all actives have a fitted effect of over 50% in size
# [4] = Vero cells viability qHTS for Zika virus inhibitors (AID 1347167); conditions: cytotoxicity counter-screen (Zika); series mostly up to 26.9 µM
# In short: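 Compounds were tested in concentration series on cells grown in DMEM containing 4% FBS. After 24 to 48 hours, cellular ATP was measured by luminescence with CellTiter Glo.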
# Potency means the concentration at half of the fitted maximal effect.
compound,measurement,setting,value
CC(C)(C)c1ccc(C(O)CCCN2CCC(C(O)(c3ccccc3)c3ccccc3)CC2)cc1 (centres undefined),Potency,[1],active: 25.1 µM [sample A] and inactive [sample B]
COc1cc2ncnc(Nc3ccc(F)c(Cl)c3)c2cc1OCCCN1CCOCC1,Potency,[2],active: 1.36 µM [sample A] and inactive [sample B]
CC(C)OC(=O)C(C)(C)Oc1ccc(C(=O)c2ccc(Cl)cc2)cc1,Potency,[3],inactive [sample A] and active: 23.5 µM [sample B]
CC1(C)CCC(CN2CCN(c3ccc(C(=O)NS(=O)(=O)c4ccc(NCC5CCOCC5)c([N+](=O)[O-])c4)c(Oc4cnc5[nH]ccc5c4)c3)CC2)=C(c2ccc(Cl)cc2)C1,Potency,[4],active: 18.5 µM [sample A] and inactive [sample B]
